The list shows a part of the results. The main result of the screen is listed elsewhere. These columns were measured beside it and carry no call.

The test deals with Voltage-dependent N-type calcium channel subunit alpha-1B (Homo sapiens) (UniProt Q00975). Kind of test: disruptors of CaV2.2 binding to Mint1 – biochemical, HTRF (AID 2073). To be noted: HTRF protein-protein interaction, Mint1-CaV2.2; measured here: average of repeat tests; at 20 µM; stronger effect = higher value. In general terms: In TR-FRET formats the signal depends on donor and acceptor labels being close together.
Chain of UniProt Q00975 (Q00975 whole entry, looked up): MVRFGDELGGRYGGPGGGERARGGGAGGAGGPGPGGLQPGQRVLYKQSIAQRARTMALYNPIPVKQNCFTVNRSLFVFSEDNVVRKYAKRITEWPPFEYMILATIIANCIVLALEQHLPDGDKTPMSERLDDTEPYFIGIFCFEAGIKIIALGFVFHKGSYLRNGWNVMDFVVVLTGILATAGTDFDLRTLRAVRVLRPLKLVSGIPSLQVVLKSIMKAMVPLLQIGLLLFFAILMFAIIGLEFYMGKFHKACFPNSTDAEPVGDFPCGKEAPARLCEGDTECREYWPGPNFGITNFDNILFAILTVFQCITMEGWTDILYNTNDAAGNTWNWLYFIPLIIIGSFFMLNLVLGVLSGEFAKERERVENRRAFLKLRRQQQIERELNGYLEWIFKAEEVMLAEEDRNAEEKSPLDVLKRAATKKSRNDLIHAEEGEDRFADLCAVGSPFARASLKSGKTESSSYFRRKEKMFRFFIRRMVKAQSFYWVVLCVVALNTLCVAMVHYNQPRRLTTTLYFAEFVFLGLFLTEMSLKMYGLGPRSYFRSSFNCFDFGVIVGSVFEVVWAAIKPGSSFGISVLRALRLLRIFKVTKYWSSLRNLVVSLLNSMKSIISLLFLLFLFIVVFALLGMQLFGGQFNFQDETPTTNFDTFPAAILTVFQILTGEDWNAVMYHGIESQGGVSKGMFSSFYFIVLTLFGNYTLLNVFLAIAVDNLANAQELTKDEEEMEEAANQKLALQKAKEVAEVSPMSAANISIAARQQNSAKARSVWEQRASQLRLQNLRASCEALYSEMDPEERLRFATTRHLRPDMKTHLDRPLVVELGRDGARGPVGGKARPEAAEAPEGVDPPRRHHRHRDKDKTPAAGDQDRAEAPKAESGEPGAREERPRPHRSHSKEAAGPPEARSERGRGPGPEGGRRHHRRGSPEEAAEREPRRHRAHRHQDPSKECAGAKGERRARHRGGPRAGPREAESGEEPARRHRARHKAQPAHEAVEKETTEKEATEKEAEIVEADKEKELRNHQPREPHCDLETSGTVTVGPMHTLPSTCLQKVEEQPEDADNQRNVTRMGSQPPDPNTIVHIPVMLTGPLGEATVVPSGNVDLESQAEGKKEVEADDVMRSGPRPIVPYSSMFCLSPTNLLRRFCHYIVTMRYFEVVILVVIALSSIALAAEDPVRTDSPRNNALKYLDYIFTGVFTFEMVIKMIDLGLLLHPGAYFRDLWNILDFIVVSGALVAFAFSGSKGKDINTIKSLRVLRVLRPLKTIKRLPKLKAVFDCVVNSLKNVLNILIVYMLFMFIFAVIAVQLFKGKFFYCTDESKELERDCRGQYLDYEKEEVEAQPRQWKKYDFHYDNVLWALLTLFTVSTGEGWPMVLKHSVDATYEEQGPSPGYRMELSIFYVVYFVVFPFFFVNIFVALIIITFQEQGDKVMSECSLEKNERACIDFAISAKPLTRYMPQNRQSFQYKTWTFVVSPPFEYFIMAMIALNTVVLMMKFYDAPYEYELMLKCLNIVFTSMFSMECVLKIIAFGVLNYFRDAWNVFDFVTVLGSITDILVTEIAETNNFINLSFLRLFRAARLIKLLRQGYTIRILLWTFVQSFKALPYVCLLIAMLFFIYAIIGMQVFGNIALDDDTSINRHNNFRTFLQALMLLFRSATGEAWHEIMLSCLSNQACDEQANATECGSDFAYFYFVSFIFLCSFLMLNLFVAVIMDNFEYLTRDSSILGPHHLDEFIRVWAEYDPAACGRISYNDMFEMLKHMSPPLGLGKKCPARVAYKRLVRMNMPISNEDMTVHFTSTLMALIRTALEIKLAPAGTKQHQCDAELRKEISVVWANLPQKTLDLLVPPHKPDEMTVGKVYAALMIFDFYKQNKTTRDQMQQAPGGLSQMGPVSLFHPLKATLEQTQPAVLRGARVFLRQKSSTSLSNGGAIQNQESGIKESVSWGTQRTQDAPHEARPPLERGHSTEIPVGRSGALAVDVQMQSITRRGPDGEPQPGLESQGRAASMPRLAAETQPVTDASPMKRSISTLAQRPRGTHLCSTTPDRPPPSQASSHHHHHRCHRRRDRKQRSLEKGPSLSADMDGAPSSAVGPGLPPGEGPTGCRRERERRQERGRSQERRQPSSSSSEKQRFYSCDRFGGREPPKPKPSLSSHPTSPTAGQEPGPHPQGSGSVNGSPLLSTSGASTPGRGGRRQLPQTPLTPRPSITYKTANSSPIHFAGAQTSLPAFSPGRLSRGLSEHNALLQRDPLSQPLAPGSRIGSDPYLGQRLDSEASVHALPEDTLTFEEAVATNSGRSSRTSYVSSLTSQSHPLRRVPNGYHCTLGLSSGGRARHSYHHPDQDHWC
Take `CC(=O)NC1=NC(=O)/C(=C/c2cn(C(C)=O)nc2-c2ccccc2)S1`: the inhibition came to 42.1%. Under `Cc1ccc(-c2ccc(/C=C3\C(=O)ON=C3c3ccccc3)o2)c([N+](=O)[O-])c1` stands 59.8%; under `COc1ccc(/C=C/C(=O)NC(=S)Nc2ccc(S(=O)(=O)N=C(N)N)cc2)cc1OC`, 75.8%. With `Nc1c(C(=O)Nc2ccccc2)sc2nc(-c3ccco3)ccc12` the figure was 67.3%.

For `O=C(COc1ccc(/C=N/NC(=O)c2ccc(O)cc2)cc1)Nc1ccc([N+](=O)[O-])cc1`, the inhibition amounted to 75.6%. With `CCOc1cc(/C=N/NC(=O)c2ccc(-c3csc(Nc4ccc(C)cc4)n3)cc2)ccc1OCC(=O)O` the figure was 88%.

Take `N#CC1=C(N)NC(=S)C(C(N)=O)C1c1ccccc1F` (stereo not given): the inhibition was 81.4%.

In the case of `COc1ccc(C2CC(=O)N3CN(c4ccc(C)c(Cl)c4)CSC3=C2C#N)cc1OC` (stereo not given), the inhibition was found to be 47.8%. With `O=C(Nc1ccc(Cl)c(Cl)c1)Nc1nnc(-c2ccncc2)s1` the figure was 42.7%.

As for `CC(/C=C/c1ccco1)=N\NC(=O)c1cccnc1`, the inhibition was found to be 60.6%. With `Cn1c2ccccc2c2cc(/C=N/NC(=O)c3cc(O)ccc3O)ccc21` the figure was 54.2%. Under `CCOC(=O)c1nnn2c1nc(Nc1cccc(C(F)(F)F)c1)c1ccccc12` stands 37.8%. On to `COc1cc(OC)c(-c2c3cc(O)c(=O)cc-3oc3cc(O)c(O)cc23)cc1OC`, for which the inhibition came out at 46.3%. Under `O=C1C=CC(=O)N1c1ccc(N2CCCCC2)cc1` stands 61.4%; under `Nc1c(C(=O)Nc2ccc(Br)cc2)sc2nc(-c3ccco3)ccc12`, 66%. As to `CC1=C(C#N)C(=O)N(C2CCS(=O)(=O)C2)C(=O)/C1=C\c1ccco1` (stereo not given), the inhibition was found to be 98%. Under `CCC1=NN2C(=N)/C(=C\c3ccc(OCc4cc(=O)n5nc(CC)sc5n4)c(OC)c3)C(=O)N=C2S1` stands 64.8%.

Turning to `NC(=O)c1ccc2c(=O)c(O)c(-c3cc(Cl)c(N)c(Cl)c3)[nH]c2c1`, the inhibition came to 59%. Under `CN1CCN(NS(=O)(=O)c2cccs2)CC1` stands 43.5%. Under `Nc1cccc(-c2nc3cc(S(=O)(=O)c4ccc5oc(-c6cccc(N)c6)nc5c4)ccc3o2)c1` stands 47.6%; under `COC(=O)c1ccc(NC(=O)c2ccc(NC(=O)c3ccco3)cc2)cc1`, 47.7%. In the case of `Cc1cc2nc(/C=C/c3nc4cc(C)c(C)cc4[nH]3)[nH]c2cc1C`, the inhibition is 45.3%.

As to `CCOC(=O)c1nn(-c2ccc(C)c(C)c2)c(=O)c2c(N)scc12`, the inhibition worked out at 56.7%. As to `CCCc1ccc(/C=C2\C(=O)c3ccccc3C(O)=C2C(=O)OCC)cc1`, the inhibition was 55.4%. Under `O=C(NCCCO)Nc1ccc2nc(-c3ccco3)c(-c3ccco3)nc2c1` stands 59.8%. With `O=C(NC1CCCC1)c1ccc2nc(-c3ccco3)c(-c3ccco3)nc2c1` the figure was 35.5%.

Turning to `O=C(CSc1n[nH]c(=O)[nH]c1=O)Nc1ccc2c(c1)C(=O)c1ccccc1C2=O`, the inhibition was determined as 53.5%. With `O=c1cc(CO)oc(C(Nc2cccc(C(F)(F)F)c2)c2ccccn2)c1O` (stereo not given) the figure was 65.7%; with `CC1=C(C)CS(=O)N(S(=O)(=O)c2ccccc2)C1` (stereo not given), 60.4%; with `Cc1cc(=O)oc2cc(OCC(=O)N/N=C/c3cc([N+](=O)[O-])ccc3O)ccc12`, 50.9%.

For the molecule `Cc1ccc(N(CC(O)COCc2ccco2)S(=O)(=O)c2ccc(C)cc2)cc1` (stereo not given), the inhibition is 48.9%. Under `C=C(C)C(=O)Nc1cccc(C2=NOC3(C2)C[C@@H](C(N)=O)N(C(=O)c2ccc(OC)cc2)C3)c1` (stereo not given in full) stands 78.6%. With `COc1ccc(N=C2S/C(=C\c3ccc(OC(C)C(=O)O)c(OC)c3)C(=O)N2CCc2c[nH]c3ccccc23)cc1` (stereo not given) the figure was 80.7%. With `Cc1cc(C)c2c(=O)n(CC(=O)NC3CCCC3)sc2n1` the figure was 91%. `COc1ccc(C(=O)Nc2nnc(CC(=O)N/N=C/c3ccc(O)cc3O)s2)cc1`: the inhibition amounted to 51%. In the case of `CCOc1ccc(NC(=O)c2ccc(NC(=O)c3ccc(CN4CCOCC4)cc3)cc2)cc1`, the inhibition amounted to 65.9%.

On to `Cc1cc(O)c(C=O)c2c1C(=O)Oc1c(CO)c(O)c3c(c1O2)C(O)OC3=O` (stereo not given), for which the inhibition worked out at 85.4%.

Regarding `O=C(O)Cc1sc(Nc2ccc(Cl)cc2)nc1-c1cccs1`, the inhibition amounted to 38.5%. With `CCc1cc2c(=O)c(Oc3ccccc3F)c(C)oc2c(CN(C)C)c1O` the figure was 52.1%.

For the molecule `COc1ccc(N2CSC3=C(C#N)C(c4cccc(OC)c4OC)CC(=O)N3C2)cc1` (stereo not given), the inhibition amounted to 40.4%. With `O=C(N/N=C/c1cccc(F)c1)c1cc(-c2ccco2)nc2ccccc12` the figure was 68.4%. With `COc1cc2cc3c(N)c(C(=O)Nc4sc(C)c(C)c4C#N)sc3nc2cc1OC`, the inhibition was determined as 58.2%. Turning to `CCC(=O)Nc1ccc(Nc2nc(Cl)nc(Nc3ccc(NC(=O)CC)cc3)n2)cc1`, the inhibition was 60.7%.

For the molecule `O=C(N/N=C/c1ccc(F)cc1)c1cc(-c2ccco2)nc2ccccc12`, the inhibition turned out to be 63.1%.

Regarding `CNC(=O)C1C(=S)NC(N)=C(C#N)C1c1ccccc1` (stereo not given), the inhibition worked out at 82.3%.

Consider `CCOc1cc(/C=C\[N+](=O)[O-])ccc1OCC(=O)N1CCOCC1`, for which the inhibition was determined as 67.1%. Under `N=C1C(c2nc(-c3ccc(Cl)cc3)cs2)=C(O)CN1NC(=O)c1ccc(O)cc1` stands 47.2%; under `Cc1cccc(N2CSC3=C(C#N)C(c4ccc(C)o4)CC(=O)N3C2)c1` (stereo not given), 62.4%. With `CCOC(=O)c1cc(-c2ccccc2)sc1NC(=O)COC(=O)c1cccc(S(N)(=O)=O)c1` the figure was 57.9%; with `C/C(=N\Nc1ccc(S(N)(=O)=O)cc1[N+](=O)[O-])c1cccs1`, 80.1%. Under `Cc1cccc(N2CCN(C(=O)Cn3sc4nc(C)cc(C)c4c3=O)CC2C)c1` (stereo not given) stands 85.3%; under `CSc1nc(NCCOCCO)c2sc3nc(-c4ccco4)c4c(c3c2n1)CCC4`, 51.7%. In the case of `O=C(COC(=O)CNC(=O)c1ccc(-c2ccccc2)cc1)NCc1ccco1`, the inhibition came out at 65.6%.

Consider `COc1ccc(-c2nc3c(c(SCC(=O)Nc4cccc(O)c4)n2)Cc2c(CO)cnc(C)c2O3)cc1`, for which the inhibition was 70.6%. Under `O=C(O)c1cc(N2N=C(C(F)(F)F)/C(=C/C=C/c3ccco3)C2=O)ccc1Cl` stands 84.3%; under `Oc1ccc(/C=N/N=C(c2ccccc2)c2ccccc2)c(O)c1O`, 45.3%; under `N=C1/C(=C\c2ccc(-c3ccc(C(=O)O)cc3)o2)C(=O)N=C2SC=C(c3ccccc3)N12`, 59.5%. As for `NS(=O)(=O)c1ccc(N/N=C/c2ccc3c(c2)OCO3)c([N+](=O)[O-])c1`, the inhibition was 75.8%.

For `COc1cc(/C=C2\SC(=S)N(c3cccnc3)C2=O)ccc1O`, the inhibition was 67.1%. For the molecule `C/C=C/C=C\C(=O)Nc1cccc(C2=NOC3(C2)C[C@H](C(N)=O)N(C(=O)/C=C/C)C3)c1` (stereo not given in full), the inhibition amounted to 69.4%.

One may read the inhibition as the share of the control response that was lost under treatment.

Values taken from PubChem BioAssay AID2073 (Sanford-Burnham Center for Chemical Genomics, 2009).
